The whole screen tested about 310,000 compounds, of which about 2,200 (0.71%) showed an effect of 50% or more. The effect is printed as a negative number. Some of the results follow.
These molecules were tested against human ether-à-go-go-related gene (hERG) potassium channel (human, UniProt Q12809) (assay: primary screen, population patch clamp on CHO cells stably expressing hERG).
Sequence of human ether-à-go-go-related gene (hERG) potassium channel (Q12809 whole entry, looked up): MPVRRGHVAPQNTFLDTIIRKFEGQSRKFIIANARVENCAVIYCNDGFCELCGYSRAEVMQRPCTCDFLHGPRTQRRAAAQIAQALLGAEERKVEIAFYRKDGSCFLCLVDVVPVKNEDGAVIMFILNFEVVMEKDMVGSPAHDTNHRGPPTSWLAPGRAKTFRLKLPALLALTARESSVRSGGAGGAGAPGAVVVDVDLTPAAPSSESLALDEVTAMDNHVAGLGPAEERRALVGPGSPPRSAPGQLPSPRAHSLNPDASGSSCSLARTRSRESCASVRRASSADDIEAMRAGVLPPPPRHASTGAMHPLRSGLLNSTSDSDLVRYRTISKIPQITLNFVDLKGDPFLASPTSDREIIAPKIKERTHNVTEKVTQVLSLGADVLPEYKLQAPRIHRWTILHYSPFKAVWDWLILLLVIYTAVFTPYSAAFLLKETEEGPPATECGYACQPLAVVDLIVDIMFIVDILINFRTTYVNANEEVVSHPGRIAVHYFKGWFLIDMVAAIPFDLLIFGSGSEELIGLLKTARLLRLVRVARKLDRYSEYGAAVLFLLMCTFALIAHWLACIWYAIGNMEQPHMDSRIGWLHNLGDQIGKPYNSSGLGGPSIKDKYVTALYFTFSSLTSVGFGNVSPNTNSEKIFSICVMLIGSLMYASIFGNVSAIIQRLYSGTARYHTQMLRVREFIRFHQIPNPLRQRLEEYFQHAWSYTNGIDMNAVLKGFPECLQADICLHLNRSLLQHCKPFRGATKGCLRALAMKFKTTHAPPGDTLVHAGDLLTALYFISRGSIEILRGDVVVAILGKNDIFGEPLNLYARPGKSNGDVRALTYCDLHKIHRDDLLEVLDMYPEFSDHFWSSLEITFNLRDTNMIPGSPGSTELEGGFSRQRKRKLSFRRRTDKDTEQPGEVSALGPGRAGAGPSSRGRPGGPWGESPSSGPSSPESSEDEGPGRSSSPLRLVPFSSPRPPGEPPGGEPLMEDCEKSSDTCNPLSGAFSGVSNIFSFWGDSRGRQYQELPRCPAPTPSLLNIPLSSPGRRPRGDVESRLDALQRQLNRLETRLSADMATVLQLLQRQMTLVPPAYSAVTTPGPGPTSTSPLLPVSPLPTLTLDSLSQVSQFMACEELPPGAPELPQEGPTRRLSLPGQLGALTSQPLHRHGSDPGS

Structure (SMILES)	hERG current change (%, negative = inhibition) at 1uM [%]
Cc1ccc2c(c1)Oc1ccccc1C=C2C(=O)O	8.54
Cc1cccc(NC2=NC(C)(C)N=C(N)N2)c1C	12.8
Cc1cc(C)nc(N2C(=O)CC(Cc3ccc(Cl)cc3)C2=O)n1 (centres unmarked)	8.77
CN1CCN(S(=O)(=O)c2ccc(Sc3nc4ccccc4[nH]3)c3nsnc23)CC1	2.69
COc1cccc(-c2c(NC(=O)c3ccco3)oc3ccccc3c2=O)c1	9.86
Nc1nc(Cl)cc(Sc2ccc3ccccc3c2)n1	8.82
NC(=S)N/N=C/c1coc2ccc(Br)cc2c1=O	10.6
O=C(COc1ccc2c(c1)CCC2)NCc1cccc(Cl)c1	6.98
COC(=O)CSc1nc(NC#N)nc(NC(C)(C)C)n1	14.3
Cc1ccc(-c2csc(N3CCC(C(N)=O)CC3)n2)cc1	17.9
NS(=O)(=O)c1ccc(N2CCOCC2)c(C(=O)NCCCSc2ccccc2)c1	1.07
C=CCNC(=S)NC(=O)c1ccc(C)c(Br)c1	12.2
CCOc1ccc(NC(=O)CCC(=O)N2CCSc3ccccc32)cc1	-3.41
COc1ccccc1OCCCC(=O)Nc1nccs1	10.7
O=C1CCCC2=C1C(c1ccncc1)c1c(nc(SCc3ccccc3Cl)[nH]c1=O)N2 (centres unmarked)	10.5
CC1CCN(C(=O)COc2coc(CN3CCc4ccccc43)cc2=O)CC1	-10.8
COc1ccc(CCNC(=O)c2ccccc2Cl)cc1OC	7.87
COc1ccc(S(=O)(=O)N2CCCC2CNC(=O)c2cccc(OC)c2)cc1 (centres unmarked)	5.46
Cc1cccc(Cn2nc(C)cc2NC(=O)CCCn2ccc([N+](=O)[O-])n2)c1	-2.16
Cc1ccc2nc(/N=C(\N)NC(=O)N3c4ccccc4Sc4ccccc43)nc(C)c2c1	10.6
Cc1ccc(C2/C(=C(/O)c3ccc(Br)cc3)C(=O)C(=O)N2Cc2ccco2)o1 (centres unmarked)	16.2
CCCCCCCC(=O)NNC(=O)c1c(O)c2ccccc2[nH]c1=O	9.8
COc1ccc(C(CC(=O)N2CCC3(CC2)OCCO3)NS(=O)(=O)c2ccc(OC)cc2)cc1 (centres unmarked)	9.32

Structure (SMILES)	hERG current change (%, negative = inhibition) at 1uM [%]
Clc1ccc(CN2CCN(c3ccccc3)CC2)cn1	9.39
Cc1cccc(-n2c(=S)[nH]c3ccccc3c2=O)n1	8.41
CN(C)S(=O)(=O)c1ccc(NC=O)cc1	10.6
C=CCN1c2ccccc2[C@]23C[C@@H](C(=O)OC)N(C(=O)c4cccs4)C2=NC(C(=O)OC)=C(C(=O)OC)[C@H]13	6.71
Cc1c(C)n(CC(O)CN(CCO)CCO)c2ccccc12.Cl (centres unmarked)	18.3
Cc1oc(-c2ccc3ccccc3c2)nc1CN(C)C(C)c1ccncn1 (centres unmarked)	-11
O=C(N=Nc1c(O)[nH]c2ccc(F)cc12)c1ccc(NS(=O)(=O)c2cccs2)cc1	12.4
Cc1ccc(-c2nc(CS(=O)CC(=O)NCCN3CCOCC3)c(C)o2)cc1 (centres unmarked)	12
CC(C)C[C@H](NC(=O)N1CCn2c1nc1ccccc12)C(=O)NCCc1ccccc1	13.6
COc1cc2c(c(OC)c1OC)-c1ccc(NC(=O)c3ccccc3)c(=O)cc1[C@@H](NC(C)=O)CC2	3.22
Cc1ccc(S(=O)(=O)N2CCN(C(=O)c3c(-c4ccccc4)noc3C)CC2)cc1	6.23
CCN1C(=O)CC(c2ccccc2)CC1=O	9.44
Cc1cccc(C)c1CC(=O)N1CCOCC1	12.3
O=c1cc(O)nc[nH]1	7.69
CCN(CC)CCN(C(=O)/C=C/c1cccs1)c1nc2ccc(Cl)cc2s1.Cl	11.4
CN(C)C(=S)Nc1ccc2c(c1)OCO2	12.9
Cc1ccc(-c2cc3c(nn2)-c2ccccc2C3=O)cc1	7.14
O=C(NN1C(=O)c2ccccc2NC1c1ccccn1)c1ccc([N+](=O)[O-])cc1 (centres unmarked)	1.45
Cc1[nH]n(-c2ccccc2)c(=O)c1C=Nc1cccc2cccnc12	-10.3
CCc1ccccc1NC1c2ccccc2C(=O)N1c1cccnc1 (centres unmarked)	5.29
CC(C)C[C@H](NC(=O)c1nc[nH]c1C(=O)N[C@@H](CC(C)C)C(=O)OCc1ccccc1)C(=O)OCc1ccccc1	9.56
CC(C)(C)S(=O)(=O)c1ccccc1-c1noc(-c2ccccc2)c1C(N)=O	13.8
CCCN(CC1CC1)C(=S)Nc1ccc(Oc2ccccc2)cc1	2.21

Structure (SMILES)	hERG current change (%, negative = inhibition) at 1uM [%]
O=S(=O)(c1ccccc1)N(CC(O)CN1CCCC1)c1ccccc1 (centres unmarked)	3.65
O=C(COc1cccc2cccnc12)NCc1cccs1	17.7
CC(C)[C@H](NC(=O)c1ccccc1)C(=O)OCc1nc2scc(-c3ccccc3)c2c(=O)[nH]1	3.94
COc1ccc(Nc2cc(C(=O)NCCCN3CCN(C)CC3)c3ccccc3n2)c(OC)c1	11.8
CCOc1ccc(CN2CCNC(=O)C2CC(=O)NCCc2cnccn2)cc1 (centres unmarked)	6.33
c1cnn(-c2nc(N3CCOCC3)nc(N3CCOCC3)n2)c1	7.43
Cc1oc(-c2ccc(Cl)cc2)nc1CN1CCC(C(=O)NCCCN2CCCC(C)C2)CC1 (centres unmarked)	10.5
O=C(Nc1nc2ccccc2[nH]1)Nc1ccccc1F	15.4
CCc1ccc(-n2c(SCC(=O)N3Cc4ccccc4CC3C(=O)O)nnc2-c2ccncc2)cc1 (centres unmarked)	9.53
O=C(CCc1ccccc1)N=C1SC2CS(=O)(=O)CC2N1c1cccc(F)c1 (centres unmarked)	-2.69
Cc1ccc(SCC(=O)Nc2ccc(-c3nnc(-c4ccco4)o3)cc2)cc1	9.25
N#C/C(=C/c1ccccc1[N+](=O)[O-])C(=O)NCc1ccco1	-3.2
Cc1cc(NC(=O)CSc2nc3ccccc3n2CC(=O)N2CCCCC2)no1	-5.08
Cc1nnc2sc(COc3ccccc3)nn2c1=O	14.2
Cc1ccc(NC(=O)/C=C\C(=O)NCC(=O)O)cc1	8.68
CCOc1ccccc1OCC(=O)Nc1cc(S(=O)(=O)N2CCCCC2)ccc1N1CCN(CC)CC1	-18.9
Cc1ccc(NC(=S)N2CCN(S(=O)(=O)c3ccc(C)cc3)CC2)cc1	12.9
CCC(C(=O)n1cccc1C#N)c1ccccc1C (centres unmarked)	13.1
OCCN(Cc1ccccc1)Cc1ccc(Cl)cc1Cl	-2.72
Cc1cc(=O)n(C)c(=O)n1CCCCCCN1CCCC1.O=C(O)C(=O)O	10.7
Cc1c(NC(=O)C(C)OC(=O)c2cc(Cl)ccc2O)c(=O)n(-c2ccccc2)n1C (centres unmarked)	12.4
NC(=O)c1cc(S(=O)(=O)Nc2cccc(F)c2)co1	8.52
O=C(CCCN=C1NS(=O)(=O)c2ccccc21)OCC(=O)c1ccccc1Cl	-1

Structure (SMILES)	hERG current change (%, negative = inhibition) at 1uM [%]
Cc1noc(C)c1CNCc1ccccc1.O=C(O)C(=O)O	16
CCCCN(C(=O)c1cccc(-n2cccc2)c1)c1c(N)n(CCC)c(=O)[nH]c1=O	6.47
Cc1cc(Br)c2[nH]cc(CCNC(=O)c3ccco3)c2c1	7.84
O=C(CSc1nc2ccccc2[nH]1)NC1CCS(=O)(=O)C1 (centres unmarked)	6.46
CCOC(=O)C(O)(c1ccc(N(C)C(=O)c2ccc(Cl)c(Cl)c2)cc1)C(F)(F)F (centres unmarked)	0.321
Cc1ccc(S(=O)(=O)N2CCN(S(=O)(=O)c3ccc(C)cc3)C2c2ccccc2)cc1	3.23
COC(=O)c1ccc(C(=S)N2CCOCC2)cc1	3.15
Cc1ccc(S(=O)(=O)N2CN(Cc3ccco3)c3nc4ccccc4nc32)cc1C	11.5
COC(=O)c1ccc(C(=O)OCc2nc3cc4ccccc4cc3[nH]2)cc1	11
COc1ccc(C(=O)Nc2ccc(Nc3ccccc3)cc2)cc1OC	14.7
CCc1ccc(N(CC(=O)N2CCN(Cc3ccccc3)CC2)S(C)(=O)=O)cc1	4.79
O=C(NCC1CCCO1)c1ccc(CNS(=O)(=O)c2cccc(Cl)c2)cc1 (centres unmarked)	32.1
Cc1cc(Br)ccc1OCC(=O)NNC(=O)Cc1ccccc1	10.4
CCCCCC(O)(CCCCC)C(=O)NNc1ccccc1	4.1
Cc1ccsc1/C=C/C(=O)O	1.08
CC(C)CNC(=O)c1cccc(NC(=O)C2CCCO2)c1 (centres unmarked)	13.6
CC1CCCCC12NC(=O)N(CC(=O)NCCc1c[nH]c3ccccc13)C2=O (centres unmarked)	-14.8
CCCCN(Cc1ccco1)C(=O)C1CCCN(c2ncnc3c2nc2n3CCCCC2)C1 (centres unmarked)	-3.37
CCOC(=O)c1ccc(NC(=O)CN(Cc2ccc(Cl)cc2)S(C)(=O)=O)cc1	9.88
O=C(NC1CCCCCC1)c1cccc(N2CCCC2=O)c1	11.4
